According to publication PMC12136788:
This is one part of the list.

B1: chr11:2397021:2397122:+|3pUTR|ENSG00000110651|msi1|FALSE|unique (ssRNA)
RNA: GGGAGUUCUACAGUCCGACGAUCUUGGGGUUUUGUUUUUGUUCUGAACUUUCCUGUUACCUUUUCAGGGCUGACGUCACAUGUAGGUGGCGUGUAUGAGUGGAGACGGGCCUGGGUCUUGGGGACUGGAGGGCAGGGGUCCUUCAACAGAGGAUUGAGCAUCA
B2: chr12:64147824:64147925:+|3pUTR|ENSG00000196935|unk|total|mutant (ssRNA)
RNA: GGGAGUUCUACAGUCCGACGAUCCAUCUCUGUGGUGUCUUUGUUCCUUUCCUUUCAUUCAUCACUACUUUCUCCUUGACAGCCCGCUUGCAUUAAAUAAUGUGAAACUUUUACCUUUAAAAUAUUUUUUUAUCUCACUUUCAUCAACAGAGGAUUGAGCAUCA
B3: ENSG00000070961:be:win_1301|CDS|ENSG00000070961|bound_else_gene|NA|bound_elsewhere_windowed (ssRNA)
RNA: GGGAGUUCUACAGUCCGACGAUCGUCUUCCACUUGCAGUCACGAUCUCACUGGCUUAUUCAGUCAAAAAAAUGAUGAAAGAUAAUAACUUAGUAAGGCAUCUGGAUGCUUGUGAAACCAUGGGAAAUGCUACAGCUAUUUGUUCAACAGAGGAUUGAGCAUCA
B4: chr12:76028505:76028606:-|3pUTR|ENSG00000139289|msi1|FALSE|unique (ssRNA)
RNA: GGGAGUUCUACAGUCCGACGAUCAAGUCUUGGUCAGUAUUUUUCCAGCAUUUAAAUUGAAACGGUCAGUAUUAGACCACUGCUAGGUUAUGUAGUCAAGAAAUAAAAAUAGAAUUACAUGCUACAGAUGUCUUUAUUCUCCUUCAACAGAGGAUUGAGCAUCA
B5: chr3:122768741:122768856:-|CDS|ENSG00000169087|unk|total|mutant (ssRNA)
RNA: GGGAGUUCUACAGUCCGACGAUCACAUGUAAUUACGCCGAAGCUACACUCGAAGAGUUUCUGACCUGGAACUGUGACCAGUCCCGUAUUUCUGGACCAUUCCGAGAUUAUGACCAUUCCAAGUUCUGGGCUUAUGCUGACUAUCAACAGAGGAUUGAGCAUCA
B6: chr1:54850123:54850236:-|3pUTR|ENSG00000116133|msi1_unk|total|mutant (ssRNA)
RNA: GGGAGUUCUACAGUCCGACGAUCGCCUCCAACCCUAAGCCACUGGGACGGUGGCCAGAGAUGCCAGCAGCCUCUGUCGCCCUCCGUCAUAUAACCAAAAUCCAGACCUUAUCCACAACCCGGGGCUUGGAAAGGAAGGUAUUUCAACAGAGGAUUGAGCAUCA
B7: ENSG00000112365:stop:overlap|stop_codon|ENSG00000112365|stop_codon|NA|stop_codon (ssRNA)
RNA: GGGAGUUCUACAGUCCGACGAUCUCUACACACUGGCAAGAAGCCUUUCUCCUGCCCUGAGUGUAACUUACAGUUUGCUCGCUUAGACAACUUGAAGGCUCACUUGAAAAUUCAUAGCAAGGAGAAGCAUGCUUCAGAUGCCAGCAACAGAGGAUUGAGCAUCA
B8: chr12:132722103:132722204:+|3pUTR|ENSG00000247077|msi1|total|mutant (ssRNA)
RNA: GGGAGUUCUACAGUCCGACGAUCGCUUCGCCUUUGACCUUCAUGCUGGUCUCGGCUGAGGUGACACGCCCGUGACAGCCCAACCGGGGGUUACCCUUAUUGAGUAAAAUACUUCAGAUUGACAGCUCAAUCUCCGUUUGCCUCCAACAGAGGAUUGAGCAUCA
B9: chr17:47658542:47658643:+|CDS|ENSG00000108424|unk|total|mutant (ssRNA)
RNA: GGGAGUUCUACAGUCCGACGAUCGAUUCUGACUGCCAUAAUCCAGGGGAUGAGGAAAGAAGAGCCCCGUAAUAAUGUGAAGCCCGCUGCUACGAAUGCACUCCUGAACUCAUUGGAGUUCACCAAAGCAAACUUUGAUAAAGACAACAGAGGAUUGAGCAUCA
B10: chr21:42850051:42850242:-|CDS|ENSG00000160193|control|control|control (ssRNA)
RNA: GGGAGUUCUACAGUCCGACGAUCCACGUUCGACAACGUGACCUCCUACCUGAAGAAGAAAGAGGAGAGACUGCAGCAGCAGCUAGAGAAGAAGCAGCGGCGCCGGAGUCCCCCGCCUGGGCCCGACGGGCAUGCCAAGAAGAUCAACAGAGGAUUGAGCAUCA
B11: chr10:62096657:62096758:+|3pUTR|ENSG00000150347|msi1|FALSE|unique (ssRNA)
RNA: GGGAGUUCUACAGUCCGACGAUCACCUCUAUGCUCUGUAAGGUGAUUAUUUGUAUAUAGCAACAUGGCCCAGUGAUAUUAUAUAGUUUCCCAAUGGAGAGGUUAUUGAGUAACCUUUGCAUUAGUUUAAACACUACCAGAAGACAACAGAGGAUUGAGCAUCA
B12: chr2:240467872:240467977:+|3pUTR|ENSG00000063660|msi1|total|mutant (ssRNA)
RNA: GGGAGUUCUACAGUCCGACGAUCCUCUGGCACAGUGAUGCCGGGCGCCAGGACAGCAGCACUCCCGCUGCACACAGACGGCCCCGGGGUGGCGCUCAGACCCCACCCUACGCUCAUCUCUGGAAGGGGCAGCCCUGAGUGGUCCAACAGAGGAUUGAGCAUCA
B13: ENSG00000127022:stop:overlap|stop_codon|ENSG00000127022|stop_codon|NA|stop_codon (ssRNA)
RNA: GGGAGUUCUACAGUCCGACGAUCACACAUUUUGUUUUACCAAGCUGAAGGUACAUUUAUGUAAAGGGAAUAUUUUAAUAGGGUAGUUUACAGUGGCUUAUGGCAGUAAAAAUUCUGUUAAAGCCAAUUUUGUUGAAGUGGGAUCAACAGAGGAUUGAGCAUCA
B14: chr17:59607285:59607386:+|3pUTR|ENSG00000108406|unk|total|mutant (ssRNA)
RNA: GGGAGUUCUACAGUCCGACGAUCUAAAUCAAAGCUCAUCAGUUCCCAUAAAUGCAGUUGUCAAAGAAAAGAUUUGGUUGCCACCGUCAUAAGCAAUGAUACAUGAAACCAAUGAAAGACAGUACAUGUAAUAAUAUUUUCCUCCAACAGAGGAUUGAGCAUCA
B15: chr14:67336187:67336738:-|three_prime_utr|ENSG00000100554|control|control|control (ssRNA)
RNA: GGGAGUUCUACAGUCCGACGAUCGUCAAGUAUGAUUUGAUUUAAUUUGAUCUUUAUAUUUUAAGAAUUACGUACUGCCUUUCUAGGAGGCAAAAAUUAGUUUGAAGUAGGGAUCCAGAUUAGUGGUUUUCCACAUGUAGGUAACAACAGAGGAUUGAGCAUCA
B16: chr1:23094017:23094118:-|CDS|ENSG00000169641|unk|FALSE|unique (ssRNA)
RNA: GGGAGUUCUACAGUCCGACGAUCCUCCAGAAAGCAGAGGAUGAACUCCUGGAUCUCCAGGACAAGGUGAUUCAGGCAGAAGGUAGCAACUCCAGCAUGUUGGCGGAGAUUGAAGUGCUGCGCCAGCGGGUGCUGAGAAUUGAACAACAGAGGAUUGAGCAUCA
B17: chr1:116393555:116393656:+|CDS|ENSG00000163399|msi1|FALSE|unique (ssRNA)
RNA: GGGAGUUCUACAGUCCGACGAUCCCCCAACACAUCGGAGCCCCAACACCUGUUGGUGAUGAAGGGCGCCCCAGAAAGGAUCCUAGACCGUUGCAGCUCUAUCCUCCUCCACGGCAAGGAGCAGCCCCUGGAUGAGGAGCUGAACAACAGAGGAUUGAGCAUCA
B18: chr3:11298707:11298833:+|CDS|ENSG00000197548|unk|total|mutant (ssRNA)
RNA: GGGAGUUCUACAGUCCGACGAUCAUAAUGGCGGCAGCUACGGGGGAUCCUGGACUCUCUAAACUGCAGUUUGCCCCUUUCCGCCGUGCCUUGGAUGUUGGGUUUUGGCAUGAGUUGACCCAGAAGAAGCUGAACGAGUAUCGGCAACAGAGGAUUGAGCAUCA
B19: chr2:96373863:96373964:+|3pUTR|ENSG00000121152|unk|total|mutant (ssRNA)
RNA: GGGAGUUCUACAGUCCGACGAUCCCGAACUGGCAAAAUAUUUGAGUGUCCACCCGAUGAGUAUCAGACCCCGUCCUUACCCUCCGGGGGAUGCAGUCCUGGUUGUUAUCCAGGAUACACACCUGUCAGUAUAAGGCAGAAGAUCAACAGAGGAUUGAGCAUCA
B20: chr11:108172639:108172748:-|CDS|ENSG00000149308|unk|FALSE|unique (ssRNA)
RNA: GGGAGUUCUACAGUCCGACGAUCGUUAUCAUUAGUGAUGAUCCAUUUGUUUCCUCAGAUACUGAACUUACCAGUGCUGUUUCUAGUAUUAAUGGAGAAAACCUGCCAACUAUAAUCUUGUCUUCUCCUACUAAAUCACCUACUCAACAGAGGAUUGAGCAUCA
B21: chr1:22120052:22120517:-|CDS|ENSG00000162552|control|control|control (ssRNA)
RNA: GGGAGUUCUACAGUCCGACGAUCGUGCCACGCAACGCACAGUUCAAGCCGCACACAGAUGAGGACCUGGUGUACUUGGAGCCUAGCCCCGACUUCUGUGAGCAGGACAUGCGCAGCGGCGUGCUGGGCACGAGGGGCCGCACACAACAGAGGAUUGAGCAUCA
B22: chr14:52864448:52864598:-|CDS|ENSG00000073712|unk|FALSE|unique (ssRNA)
RNA: GGGAGUUCUACAGUCCGACGAUCGAUGGCAGCCUGCAGAUUAGCCUCCAAAGGCAAGACCAUGGCGGACAGUUCUUACAACUUAGAAGUUCAGAAUAUUCUUUCCUUUCUGAAGAUGCAGCAUUUAAACCCAGAUCCUCAGUUCAACAGAGGAUUGAGCAUCA

biological target: MSI1 full-length (mouse, UniProt Q61474 1-362); test: nsRBNS (natural sequence RNA bind-n-seq); RBNS binding buffer (assumed for nsRBNS): 25 mM Tris pH 7.5, 150 mM KCl, 3 mM MgCl2, 0.01% Triton X-100, 500 ug/ml BSA, 20 U/ml SUPERase-In, 4 C; UNK is unkempt and MSI1 is Musashi-1; names of the RNAs are library labels; protein concentration not given here; high values mean tight binding
Chain of UniProt Q61474 (Q61474 whole entry): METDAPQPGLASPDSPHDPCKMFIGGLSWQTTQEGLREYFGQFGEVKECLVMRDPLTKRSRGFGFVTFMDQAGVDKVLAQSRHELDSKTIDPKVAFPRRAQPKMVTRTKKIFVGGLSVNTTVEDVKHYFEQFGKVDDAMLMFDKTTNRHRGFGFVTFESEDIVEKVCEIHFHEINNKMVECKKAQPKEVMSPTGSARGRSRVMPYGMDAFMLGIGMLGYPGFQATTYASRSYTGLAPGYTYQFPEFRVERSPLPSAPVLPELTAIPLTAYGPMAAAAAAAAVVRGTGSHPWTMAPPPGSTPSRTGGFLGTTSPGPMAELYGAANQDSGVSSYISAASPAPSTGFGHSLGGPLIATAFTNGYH

Row | Binder | binding signal [enrichment R]
1 | B1 | 1.88
2 | B2 | 2.32
3 | B3 | 0.636
4 | B4 | 1.98
5 | B5 | 0.431
6 | B6 | 0.645
7 | B7 | 0.537
8 | B8 | 0.283
9 | B9 | 0.44
10 | B10 | 0.402
11 | B11 | 5.86
12 | B12 | 0.305
13 | B13 | 0.549
14 | B14 | 0.414
15 | B15 | 6.4
16 | B16 | 0.304
17 | B17 | 0.354
18 | B18 | 0.418
19 | B19 | 0.261
20 | B20 | 1.03
21 | B21 | 0.446
22 | B22 | 1.06
